Measurements published in patent US20260200947A1, “FUSED CYCLIC COMPOUNDS AND USE THEREOF” (Jacobio Pharmaceuticals Co., Ltd., priority 2022, published 2026).

Each compound was assayed on AsPC-1 cells (K-Ras G12D) (assay: not given).

Structure (SMILES)	IC50
C#Cc1c(F)ccc2cc(N)cc(-c3nc4c5c(nc(OC[C@@]67CCCN6C[C@H](F)C7)nc5c3F)N3[C@@H](C)CCC[C@H](F)[C@H]3N4C)c12 [Compound 89]	0.00267 µM
C#Cc1c(F)ccc2cc(N)cc(-c3nc4c5c(nc(O[C@@H](C)[C@@H]6[C@@H](OC)CCN6C)nc5c3F)N3CCCOC[C@H]3N4C)c12 [Compound 162]	0.538 µM
C[C@H]1CCOC[C@H]2N(C)c3nc(-c4cc(N)cc5ccc(F)c(Cl)c45)c(F)c4nc(OC[C@@]56CCCN5C[C@H](F)C6)nc(c34)N12 [Compound 120]	0.0472 µM
C[C@H]1CCOC[C@H]2COc3c(Cl)c(-c4ccc(F)c5sc(N)c(C#N)c45)c(F)c4nc(OC[C@@]56CCCN5C[C@H](F)C6)nc(c34)N21 [Compound 158]	0.00506 µM
C#Cc1c(F)ccc2cc(N)cc(-c3nc4c5c(nc(OC[C@@]67CCCN6C[C@H](F)C7)nc5c3F)N3CC(F)=CCCC3N4C)c12 (some centres unmarked) [Compound 79]	0.11 µM
C#Cc1c(F)ccc2cc(N)cc(-c3nc4c5c(nc(OC[C@@]67CCCN6C[C@H](F)C7)nc5c3F)N3C5CC5COC[C@H]3CO4)c12 (some centres unmarked) [Compound 35]	0.667 µM
C#Cc1c(F)ccc2cc(N)cc(-c3nc4c5c(nc(OC[C@@]67CCCN6C[C@H](F)C7)nc5c3F)N3[C@@H](C)CCO[C@H](C)[C@H]3N4C)c12 [Compound 122]	0.114 µM
C#Cc1c(F)ccc2cc(N)cc(-c3nc4c5c(nc(OC[C@@]67CCCN6C[C@H](F)C7)nc5c3F)N3[C@@H]5CC5COC[C@@H]3N4C)c12 (some centres unmarked) [Compound 159A]	0.687 µM
C#Cc1c(F)ccc2cc(N)cc(-c3nc4c5c(nc(OC[C@@H]6CCCN6C)nc5c3F)N3CCCOCC3N4C)c12 (some centres unmarked) [Compound 111]	0.41 µM

What follows are compounds tested against GppNp-KRAS G12D (Homo sapiens, UniProt P01116, G12D) (assay: biochemical).

Structure (SMILES)	IC50
C#Cc1c(F)ccc2cc(N)cc(-c3nc4c5c(nc(O[C@@H](C)[C@@H]6[C@@H](OC)CCN6C)nc5c3F)N3CCCOC[C@H]3N4C)c12 [Compound 162]	0.928 µM
C[C@H]1CCOC[C@H]2N(C)c3nc(-c4cc(N)cc5ccc(F)c(Cl)c45)c(F)c4nc(OC[C@@]56CCCN5C[C@H](F)C6)nc(c34)N12 [Compound 120]	0.134 µM
C#Cc1c(F)ccc2cc(N)cc(-c3nc4c5c(nc(OC[C@@]67CCCN6C[C@H](F)C7)nc5c3F)N3C5CC5COC[C@H]3CO4)c12 (some centres unmarked) [Compound 35]	0.155 µM
C#Cc1c(F)ccc2cc(N)cc(-c3nc4c5c(nc(OC[C@@]67CCCN6C[C@H](F)C7)nc5c3F)N3[C@@H](C)CCO[C@H](C)[C@H]3N4C)c12 [Compound 122]	0.174 µM

The compounds below were run on AGS cells (K-Ras G12D) (assay: not given).

Structure (SMILES)	IC50
C#Cc1c(F)ccc2cc(N)cc(-c3nc4c5c(nc(OC[C@@]67CCCN6C[C@H](F)C7)nc5c3F)N3[C@@H](C)CCC[C@H](F)[C@H]3N4C)c12 [Compound 89]	0.000894 µM
C#Cc1c(F)ccc2cc(N)cc(-c3nc4c5c(nc(O[C@@H](C)[C@@H]6[C@@H](OC)CCN6C)nc5c3F)N3CCCOC[C@H]3N4C)c12 [Compound 162]	0.0939 µM
C[C@H]1CCOC[C@H]2N(C)c3nc(-c4cc(N)cc5ccc(F)c(Cl)c45)c(F)c4nc(OC[C@@]56CCCN5C[C@H](F)C6)nc(c34)N12 [Compound 120]	0.0121 µM
C#Cc1c(F)ccc2cc(N)cc(-c3nc4c5c(nc(OC[C@@]67CCCN6C[C@H](F)C7)nc5c3F)N3CC(F)=CCCC3N4C)c12 (some centres unmarked) [Compound 79]	0.0228 µM
C#Cc1c(F)ccc2cc(N)cc(-c3nc4c5c(nc(OC[C@@]67CCCN6C[C@H](F)C7)nc5c3F)N3C5CC5COC[C@H]3CO4)c12 (some centres unmarked) [Compound 35]	0.038 µM
C#Cc1c(F)ccc2cc(N)cc(-c3nc4c5c(nc(OC[C@@]67CCCN6C[C@H](F)C7)nc5c3F)N3[C@@H](C)CCO[C@H](C)[C@H]3N4C)c12 [Compound 122]	0.0259 µM
C#Cc1c(F)ccc2cc(N)cc(-c3nc4c5c(nc(OC[C@@]67CCCN6C[C@H](F)C7)nc5c3F)N3[C@@H]5CC5COC[C@@H]3N4C)c12 (some centres unmarked) [Compound 159A]	0.0714 µM
C#Cc1c(F)ccc2cc(N)cc(-c3nc4c5c(nc(OC[C@@H]6CCCN6C)nc5c3F)N3CCCOCC3N4C)c12 (some centres unmarked) [Compound 111]	0.179 µM

System: AGS cells (K-Ras G12D)
Experiment: not given
Remark: another data set of the same source

Structure (SMILES)	IC50
C#Cc1c(F)ccc2cc(N)cc(-c3nc4c5c(nc(OC[C@@]67CCCN6C[C@H](F)C7)nc5c3F)N3[C@@H](C)CCC[C@H](F)[C@H]3N4C)c12 [Compound 89]	0.000624 µM
C[C@H]1CCOC[C@H]2COc3c(Cl)c(-c4ccc(F)c5sc(N)c(C#N)c45)c(F)c4nc(OC[C@@]56CCCN5C[C@H](F)C6)nc(c34)N21 [Compound 158]	0.0155 µM
C#Cc1c(F)ccc2cc(N)cc(-c3nc4c5c(nc(OC[C@@]67CCCN6C[C@H](F)C7)nc5c3F)N3CC(F)=CCCC3N4C)c12 (some centres unmarked) [Compound 79]	0.00824 µM
C#Cc1c(F)ccc2cc(N)cc(-c3nc4c5c(nc(OC[C@@]67CCCN6C[C@H](F)C7)nc5c3F)N3C5CC5COC[C@H]3CO4)c12 (some centres unmarked) [Compound 35]	0.0171 µM
C#Cc1c(F)ccc2cc(N)cc(-c3nc4c5c(nc(OC[C@@]67CCCN6C[C@H](F)C7)nc5c3F)N3[C@@H]5CC5COC[C@@H]3N4C)c12 (some centres unmarked) [Compound 159A]	0.102 µM
C#Cc1c(F)ccc2cc(N)cc(-c3nc4c5c(nc(OC[C@@H]6CCCN6C)nc5c3F)N3CCCOCC3N4C)c12 (some centres unmarked) [Compound 111]	0.0521 µM

Each compound was assayed on SW620 cells (K-Ras G12V) (assay: not given).

Structure (SMILES)	IC50
C#Cc1c(F)ccc2cc(N)cc(-c3nc4c5c(nc(OC[C@@]67CCCN6C[C@H](F)C7)nc5c3F)N3[C@@H](C)CCC[C@H](F)[C@H]3N4C)c12 [Compound 89]	0.00198 µM
C#Cc1c(F)ccc2cc(N)cc(-c3nc4c5c(nc(O[C@@H](C)[C@@H]6[C@@H](OC)CCN6C)nc5c3F)N3CCCOC[C@H]3N4C)c12 [Compound 162]	0.139 µM
C[C@H]1CCOC[C@H]2N(C)c3nc(-c4cc(N)cc5ccc(F)c(Cl)c45)c(F)c4nc(OC[C@@]56CCCN5C[C@H](F)C6)nc(c34)N12 [Compound 120]	0.039 µM
C[C@H]1CCOC[C@H]2COc3c(Cl)c(-c4ccc(F)c5sc(N)c(C#N)c45)c(F)c4nc(OC[C@@]56CCCN5C[C@H](F)C6)nc(c34)N21 [Compound 158]	0.00217 µM
C#Cc1c(F)ccc2cc(N)cc(-c3nc4c5c(nc(OC[C@@]67CCCN6C[C@H](F)C7)nc5c3F)N3CC(F)=CCCC3N4C)c12 (some centres unmarked) [Compound 79]	0.0707 µM
C#Cc1c(F)ccc2cc(N)cc(-c3nc4c5c(nc(OC[C@@]67CCCN6C[C@H](F)C7)nc5c3F)N3C5CC5COC[C@H]3CO4)c12 (some centres unmarked) [Compound 35]	0.0177 µM
C#Cc1c(F)ccc2cc(N)cc(-c3nc4c5c(nc(OC[C@@]67CCCN6C[C@H](F)C7)nc5c3F)N3[C@@H](C)CCO[C@H](C)[C@H]3N4C)c12 [Compound 122]	0.0248 µM
C#Cc1c(F)ccc2cc(N)cc(-c3nc4c5c(nc(OC[C@@H]6CCCN6C)nc5c3F)N3CCCOCC3N4C)c12 (some centres unmarked) [Compound 111]	0.159 µM

These compounds were tested on Capan-2 cells (K-Ras G12V) (assay: not given).

IC50	Structure (SMILES)
0.000886 µM	C#Cc1c(F)ccc2cc(N)cc(-c3nc4c5c(nc(OC[C@@]67CCCN6C[C@H](F)C7)nc5c3F)N3[C@@H](C)CCC[C@H](F)[C@H]3N4C)c12 [Compound 89]
0.0185 µM	C#Cc1c(F)ccc2cc(N)cc(-c3nc4c5c(nc(OC[C@@]67CCCN6C[C@H](F)C7)nc5c3F)N3CC(F)=CCCC3N4C)c12 (some centres unmarked) [Compound 79]
0.0194 µM	C#Cc1c(F)ccc2cc(N)cc(-c3nc4c5c(nc(OC[C@@H]6CCCN6C)nc5c3F)N3CCCOCC3N4C)c12 (some centres unmarked) [Compound 111]

Structure (SMILES)	IC50
C[C@H]1CCOC[C@H]2COc3c(Cl)c(-c4ccc(F)c5sc(N)c(C#N)c45)c(F)c4nc(OC[C@@]56CCCN5C[C@H](F)C6)nc(c34)N21 [Compound 158]	0.0228 µM
C#Cc1c(F)ccc2cc(N)cc(-c3nc4c5c(nc(OC[C@@]67CCCN6C[C@H](F)C7)nc5c3F)N3[C@@H]5CC5COC[C@@H]3N4C)c12 (some centres unmarked) [Compound 159A]	0.00854 µM

What follows are compounds tested against GppNp-KRAS G12V (Homo sapiens, UniProt P01116, G12V) (assay: biochemical).

Structure (SMILES)	IC50
C#Cc1c(F)ccc2cc(N)cc(-c3nc4c5c(nc(O[C@@H](C)[C@@H]6[C@@H](OC)CCN6C)nc5c3F)N3CCCOC[C@H]3N4C)c12 [Compound 162]	> 1 µM
C[C@H]1CCOC[C@H]2N(C)c3nc(-c4cc(N)cc5ccc(F)c(Cl)c45)c(F)c4nc(OC[C@@]56CCCN5C[C@H](F)C6)nc(c34)N12 [Compound 120]	0.467 µM
C#Cc1c(F)ccc2cc(N)cc(-c3nc4c5c(nc(OC[C@@]67CCCN6C[C@H](F)C7)nc5c3F)N3C5CC5COC[C@H]3CO4)c12 (some centres unmarked) [Compound 35]	0.637 µM
C#Cc1c(F)ccc2cc(N)cc(-c3nc4c5c(nc(OC[C@@]67CCCN6C[C@H](F)C7)nc5c3F)N3[C@@H](C)CCO[C@H](C)[C@H]3N4C)c12 [Compound 122]	0.169 µM
